Consider 92 molecules from ChEMBL document CHEMBL1157539, “Thousands of chemical starting points for antimalarial lead identification” (Nature, 2010).

The full ranking holds about 13,000 compounds; the median of “IFI” is about 4, and the highest 2% start at about 17. The list shows a part of the results.

This test can be described thus: GSK_TCMDC: Inhibition Frequency Index (IFI). The number of non-kinase HTS assays where a compound showed > 50 % inhibition, expressed as a percentage of the number of such assays in which the compound was tested (-0 is zero). The class given is functional.
With `COc1ccc(-n2cc(C(=O)c3cc(Br)ccc3O)cc(C#N)c2=O)cc1Cl`, the IFI came out at 14.8%. For `CN1CCC(Oc2ccc(Nc3nccc(NCC(O)c4ccccc4)n3)cc2Cl)CC1` (configuration not stated) the value was 7.14%; for `O=C(Nc1ccc(C2=NC3CCCCC3N2)cc1)Nc1ccc(C2=NC3CCCCC3N2)cc1` (configuration not stated), 2.88%. `Cc1cc(N[C@@H](Cc2ccccc2)C(=O)NCc2cccc(F)c2)nc(NCCc2cccnc2)n1` yielded an IFI of 2.44%. With `Oc1cc(NC[C@@H]2CCC[C@@H]2NCc2ccc(Cl)c(Cl)c2)nc2ccccc12`, the IFI is 12%.

Molecule `CC(=O)Nc1ccc(CN2CCC(NC(=O)c3ccc(-c4cccc(C(F)(F)F)c4)s3)CC2)cc1` returned an IFI of 10.3%.

Regarding `CON(CCCN(C)C)C(=N)N`, the IFI was -0%. Under `COc1ccc(CNC2CCN(C)CC2)cc1-c1ccc(S(=O)(=O)NC2CCC2)c(C)c1` stands 5.88%. For `C=CCOC(=O)N1CCC(CNCc2cccc(-c3cccc(-c4nc5cccc(C)c5[nH]4)c3)c2)C1` (configuration not stated) the value was 5%; for `COc1cccc(C2(c3cccc(OC)c3)N=C(N)N(CCCc3ccccc3)C2=O)c1`, 9%; for `COc1ccc(-c2ccc(NC(=O)c3cccc(Cl)c3)cc2)cc1CN1CCCC1`, 6.8%. For `COC(=O)c1cccc(N2CCN(CCCNC(=O)/C(=C/C=C/c3cc4cc(Cl)c(Cl)cc4[nH]3)OC)CC2)c1` the value was 6.11%; for `CCCCSc1ccc(CNCCCCCCNCc2ccc(SCCCC)c3ccccc23)c2ccccc12`, 14.8%; for `N#Cc1cc(C(=O)c2cc(Cl)ccc2O)cn(-c2cc(Cl)cc(Cl)c2)c1=O`, 17.4%.

As to `N#Cc1ccc(-c2ccc3nc(N4CCCN(C5CCC5)CC4)ccc3c2)cc1`, the IFI was 6.73%. In turn, `O=C(N[C@@H](CC1CCCCC1)C(=O)NC1CCCc2ccccc21)c1ccc(O)c(-c2cccc(C(F)(F)F)c2)c1` (some centres not stated) yielded an IFI of 0.73%. For `C=CCc1cc(Cc2cnc(N)nc2N)c2ccc(C)nc2c1O` the value was 1.5%; for `CC1(C)CN2CCCC2c2cc(NC(=O)/C=C/c3ccccc3Cl)ccc21` (configuration not stated), 2.22%; for `Cc1ccccc1C1CCN(C2CCC(NC(=O)c3ccc(-c4ccccc4F)o3)CC2)CC1` (configuration not stated), 5.26%.

In turn, `O=C(Nc1cc(Cl)ccc1O)c1ccc(Oc2ccc(C(=O)Nc3cc(Cl)ccc3O)cc2)cc1` yielded an IFI of 0.69%. For `O=S(=O)(c1ccccc1)C1CC1` the value was -0%. With `CSc1ccc(NC(=O)Nc2cc(C)nc3ccccc23)cc1Br`, the IFI came out at 2.92%. Under `CC1(C)NC(N)=NC(=N)N1OCCCOc1c(Cl)cc(Cl)cc1Cl` stands 2.9%. For `N#Cc1cccc(C(=O)Nc2ccc(-c3nc4ccccc4[nH]3)cc2)c1` the value was 2.38%; for `O=C(Nc1ccc(Cl)cc1)c1ccc(CN2CCCN(Cc3ccc(F)cc3)CC2)cc1`, 10.8%; for `COc1cc(CNC2Cc3ccccc3C2)ccc1Oc1ccc2nc[nH]c2c1`, -0%.

`CCOC(=O)N(C)/N=C/[C@H](CCc1ccccc1)NC(=O)[C@H](CC(C)C)NC(=O)c1cc2cccc(OC)c2o1` returned an IFI of 5.5%.

Take `c1ccc(-n2cncn2)cc1`: the IFI was -0%.

`CC(C)OC(=O)c1ccc(NC(=O)N[C@@H](Cc2ccc(O)cc2)C(=O)NC2CCC(CCN3C4CCC3c3ccccc34)CC2)cc1` (some centres not stated) yielded an IFI of 4.31%. For `Nc1c(C(=O)NCCCCN2CCN(c3nsc4ccccc34)CC2)sc2ccccc12` the value was 7.63%. For `COc1ccc2ncc(F)c(CCN3CC(O)C(CNCc4ccc5ccccc5c4)C3)c2n1` (configuration not stated) the value was 8.82%. The molecule `Cc1cc(N(C)C)nc(Nc2ccc(NC(=O)c3ccccc3C)cc2)n1` returned an IFI of 2.33%. For `NC(=O)N1CCN(Cc2ccc(Br)cc2)CC1` the value was 1.48%; for `Nc1nc(N)c2c(ccc3c2ccn3C2CCCCC2)n1`, 6.62%; for `COc1cc2nc(N[C@@H](CO)c3ccccc3)nc(NCc3ccccc3)c2cc1OC`, 2.94%. Molecule `CCOC(=O)N1CCN(CCCCCNc2cc(C)nc(NC(=N)Nc3ccc(Cl)cc3)n2)CC1` registered an IFI of 6.06%. Under `O=C(NC1CC1)c1cnc(N2CCC(OCc3ccccc3)CC2)c(Cl)c1` stands 2.38%. `CCOC(=O)c1ccc(NC(=O)c2ccccc2C(=O)O)cc1` registered an IFI of 0.7%. Under `O=C(Nc1cccc(CN2CCCN(Cc3ncc[nH]3)CC2)c1)c1ccc(-c2ccccc2)cc1` stands 3.42%; under `CC(=O)Nc1ccc2[nH]cc(C3CCN(CC4CCN(C(=O)/C=C/c5ccc(Cl)c(Cl)c5)CC4)CC3)c2n1`, 2.11%; under `COC(=O)c1ccc(NC(=O)Nc2ccc(Cn3ncc(N4CCCNCC4)c(Cl)c3=O)cc2)cc1`, 5.97%. `O=[N+]([O-])c1cccc(CNCC2CCN(Cc3ccc(Cl)c(Cl)c3)CC2)c1` displayed an IFI of 4.23%. `Cc1cc(C(=O)CN2C(=O)NC3(CCOc4ccccc43)C2=O)c(C)n1Cc1ccc(F)cc1` (configuration not stated) gave an IFI of 1.43%. Take `Cc1nc(C)c(-c2ccc(Oc3ccc(Cl)c(Cl)c3)cc2)c(O)c1Br`: the IFI stood at 3.85%. For `NC1CCN(c2nc(NCCc3ccc(O)cc3)nc(NCc3ccccc3-c3ccccc3)n2)CC1` the value was 4.55%.

The molecule `CC1=C(C(=O)Nc2ccc(Cl)cc2)C(c2ccncc2)n2nc(C(F)(F)F)nc2N1` (configuration not stated) showed an IFI of -0%. For `Clc1ccc2c(NCc3ccc4c(c3)OCO4)ccnc2c1` the value was 4.41%; for `NC1CCN(c2nc(NCCc3ccc(O)cc3)nc(NCc3ccccc3-c3ccc(C(F)(F)F)cc3)n2)CC1`, 7.58%. With `CC(C)[C@H](NCC(=O)c1ccccc1)C(=O)O`, the IFI was determined as 1.44%. With `CN1CCN(c2nc(NCCc3ccc(O)cc3)nc(NCc3ccccc3-c3ccc(C(F)(F)F)cc3)n2)CC1`, the IFI stood at 11.8%. Under `CCOC(=O)c1cn(CC)c2cc(N3CCCCCC3)c(F)cc2c1=O` stands 2.21%; under `COc1cc(Br)ccc1N1CCN(CCCCNC(=O)c2ccc(NC(=O)c3ccc(Cl)cc3)cc2)CC1`, 6.14%; under `N=C1NC(c2ccccc2)(c2ccccc2)C(=O)N1CC=Cc1ccccc1`, 10.7%. For `O=C(/C=C/c1ccccc1)N1CCOC(CCN2CCC(c3ccccc3)CC2)(c2ccc(Cl)c(Cl)c2)C1` (configuration not stated) the value was 7.59%.

With `CCCNC(=O)Nc1cc2cc(-c3cccc(CN4CCCCC4)c3)ccc2n2c(C)nnc12`, the IFI was determined as 13.2%.

In turn, `CCCNCc1ccc(-c2ccc(CN(CCOC)C(=O)CCC(=O)c3ccc(OC)c(F)c3)cc2)nc1` gave an IFI of 0.7%. For `COc1ccc(CNC2CCN(c3ccc(NC(=O)c4cccc(Cl)c4)cc3)CC2)cc1OC` the value was 7.69%. In turn, `O=C(NCCN1CCCC1)c1cccc(-c2ccc(-c3nc4ccccc4[nH]3)s2)c1` yielded an IFI of 2.7%.

In turn, `Cc1onc(-c2ccccc2)c1-c1nc(NCCC(c2ccccc2)c2ccccc2)no1` registered an IFI of -0%. `c1ccc(Oc2ccc(Nc3nncc4ccccc34)cc2)cc1`: the IFI turned out to be 2.16%. Under `Cc1cnc(C(=O)Nc2ccc(-c3cccc(-c4nc5ccccc5[nH]4)c3)cc2)cn1` stands 6.14%; under `Cc1cccc(Oc2cccc3[nH]nc(N)c23)c1`, 1.53%; under `CN1CCCN(Cc2cccc(-c3cccc(NC(=O)c4ccc(C#N)cc4)c3)c2)CC1`, 0.98%. Molecule `N=c1n(Cc2ccccc2)c2ccccc2n1CC(O)c1ccc(Cl)c(Cl)c1` (configuration not stated) yielded an IFI of 7.86%.

Regarding `Cc1ccc2c(N/N=C/c3ccccc3[N+](=O)[O-])cc(C)nc2c1`, the IFI was 2.96%. `Cc1cc(N2CCCN(C)CC2)nc(Nc2ccc(Cl)cc2)n1` returned an IFI of 0%. As for `CS(=O)(=O)Nc1ccc2[nH]cc(C3CCN(CC(O)C4CCN(C(=O)/C=C/c5ccc(Cl)c(Cl)c5)CC4)CC3)c2c1` (configuration not stated), the IFI was -0%. Under `Cc1nnsc1C(=O)Nc1cccc(-c2cccc(-c3nc4cccc(C)c4[nH]3)c2)c1` stands 6.36%; under `CCCNCc1ccc(-c2ccc(CN(CCOC)C(=O)c3ccc([N+](=O)[O-])c(C)c3)cc2)nc1`, -0%; under `COc1ccc(-c2ccc(Nc3cccc(S(=O)(=O)CCN4CCC(CCN(C)C)CC4)c3)nc2)cn1`, 9.26%. For `CCCc1cn2c3c(cc(C(=O)N[C@@H](Cc4ccccc4)[C@H](O)CNC4CCCCC4)cc13)N(CC)S(=O)(=O)CC2` the value was 3.97%; for `CN1CCCC(CN2CCN(Cc3ccc(-c4ccc(-c5nc6cc(F)ccc6[nH]5)cc4)cc3)CC2)C1` (configuration not stated), 7.04%. For `CC(=O)c1c(Cc2cccc(C(F)(F)F)c2)c[nH]c1C` the value was 1.68%.

`CCCCCCCCCCNCC(O)c1ccc(O)c(C(=O)OC)c1` (configuration not stated) gave an IFI of 5.07%.

Molecule `CCCCCCCN1CCC(CCNc2ccnc3ccc(OC)cc23)CC1` returned an IFI of 2.16%. In turn, `O=C(Nc1cccc(CN2CCCN(Cc3ccc(O)cc3)CC2)c1)c1cc(F)cc(F)c1` gave an IFI of 2.31%.

Regarding `CCCNC(=O)C1Cc2c([nH]c3cc(Br)ccc23)C2(CCN(CCc3ccccc3)CC2)N1` (configuration not stated), the IFI is 4.32%.

Molecule `COC(=O)c1cccc(NC(=O)NC2CCN(c3ccnc(Nc4ccc(F)cc4)n3)C2)c1` (configuration not stated) came in with an IFI of 6.15%. The molecule `c1cncc(CN2CCCN(c3ccc4c(c3)CCN(Cc3ccc(-c5ncc[nH]5)cc3)CC4)CC2)c1` displayed an IFI of 2.54%. For `CCNc1cc(CCCC(=O)OCC)nc(Nc2ccc(C)cc2)n1` the value was 9.09%; for `Cc1ccc(NC(=O)c2cc(Br)cc(N3CCC(N(C)C)CC3)c2)cc1F`, 4%; for `CO/C(=C/C=C/c1cc2cc(Cl)c(Cl)cc2[nH]1)C(=O)NC1CC(C)(C)N(C)C(C)(C)C1`, 12%.

For `COc1cc2c(cc1C(F)(F)F)N(C(=O)Nc1ccc(Br)cn1)CC2`, the IFI turned out to be 0.75%. The molecule `CCNc1cc(C(=O)N[C@@H](Cc2ccccc2)[C@H](O)CN[C@H](C)C(C)(C)C)cc(N2CCCCS2(=O)=O)c1` gave an IFI of 0.76%. Under `CC(C)c1cc(Oc2c(I)cc(CCNC(=N)N)cc2I)ccc1O` stands 15.3%; under `Cc1nc(-c2ccc(-c3ccc(NC(=O)c4coc5ccc(N6CC(C)N(C)C(C)C6)cc45)cc3)c(C)c2)no1` (configuration not stated), 4.08%; under `COc1cc(NCC(CN)Cc2ccc3c(c2)OCO3)nc2ccccc12` (configuration not stated), 10.3%.

In turn, `O=C(CSc1nc2ccccc2c(=O)n1CC1CCCO1)Nc1cc(C(F)(F)F)ccc1Cl` (configuration not stated) returned an IFI of 3.6%. For `O=C(c1ccc(F)cc1)N1CCOC(CCN2CCC(c3ccccc3)CC2)(c2ccc(Cl)c(Cl)c2)C1` (configuration not stated) the value was 5.52%; for `O=C(NCCN1CCCCC1)c1ccc(Nc2nccc(Nc3ccc(Oc4ccccc4)cc3)n2)cc1`, 5.11%. For `CCc1cccc2sc(N3CCN(C(=O)c4ccc([N+](=O)[O-])o4)CC3)nc12` the value was 8.33%.

`CN(C(=O)/C=C/c1ccccc1F)C1CCN(CCCCCNC(=O)/C=C/c2ccc(Cl)c(Cl)c2)CC1`: the IFI came out at 8.7%.
